In article PMC4336329 (PLoS ONE, 2015):
In all, about 310,000 compounds went through this assay and about 14,000 (4.5%) showed an effect of 50% or more. Effects have a minus sign here. This is one part of the list.

Each compound was assayed against human ether-à-go-go-related gene (hERG) potassium channel (human, UniProt Q12809) (assay: primary screen, population patch clamp on CHO cells stably expressing hERG).
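Also: peak tail current of the secondary pulse compared with the same well before compound.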

human ether-à-go-go-related gene (hERG) potassium channel, sequence (Q12809 whole entry, looked up): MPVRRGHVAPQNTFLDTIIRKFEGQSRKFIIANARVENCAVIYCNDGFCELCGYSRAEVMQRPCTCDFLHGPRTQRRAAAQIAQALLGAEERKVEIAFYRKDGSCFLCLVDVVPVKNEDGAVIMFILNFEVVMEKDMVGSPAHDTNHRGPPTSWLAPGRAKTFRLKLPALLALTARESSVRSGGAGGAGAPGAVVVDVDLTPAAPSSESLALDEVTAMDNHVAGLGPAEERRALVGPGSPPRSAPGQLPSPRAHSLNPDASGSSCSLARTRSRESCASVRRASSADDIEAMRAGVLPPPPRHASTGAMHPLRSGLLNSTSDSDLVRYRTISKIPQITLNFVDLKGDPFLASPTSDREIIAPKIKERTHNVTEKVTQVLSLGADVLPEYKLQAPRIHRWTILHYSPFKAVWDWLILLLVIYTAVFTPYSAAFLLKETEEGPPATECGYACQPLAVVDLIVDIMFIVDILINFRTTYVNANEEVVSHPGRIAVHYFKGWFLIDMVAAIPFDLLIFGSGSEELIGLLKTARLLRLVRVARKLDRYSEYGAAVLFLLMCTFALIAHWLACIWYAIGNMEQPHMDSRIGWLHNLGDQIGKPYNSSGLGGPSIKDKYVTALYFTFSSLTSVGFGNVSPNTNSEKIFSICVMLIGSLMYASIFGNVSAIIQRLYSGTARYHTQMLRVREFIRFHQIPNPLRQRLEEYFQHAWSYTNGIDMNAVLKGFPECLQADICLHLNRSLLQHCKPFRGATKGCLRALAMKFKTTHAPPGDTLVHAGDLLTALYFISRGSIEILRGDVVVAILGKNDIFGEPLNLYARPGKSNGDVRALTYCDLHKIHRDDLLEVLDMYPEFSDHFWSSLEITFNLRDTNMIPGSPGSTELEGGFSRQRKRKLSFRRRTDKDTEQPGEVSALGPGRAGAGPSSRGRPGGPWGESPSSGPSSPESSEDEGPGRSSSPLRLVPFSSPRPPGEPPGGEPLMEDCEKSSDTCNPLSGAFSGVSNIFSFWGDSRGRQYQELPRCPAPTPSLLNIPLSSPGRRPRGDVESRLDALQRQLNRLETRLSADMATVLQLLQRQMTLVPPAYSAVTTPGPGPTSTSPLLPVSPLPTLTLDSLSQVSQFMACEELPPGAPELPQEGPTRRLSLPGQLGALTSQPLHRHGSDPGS

SMILES | hERG current change (%, negative = inhibition) at 10uM [%]
Cc1cc(C)n(-c2nnc(NCc3ccc(Cl)cc3)nn2)n1 | 7.72
CC(CC(=O)NNC(=O)c1ccncc1)c1ccccc1 (stereo not shown) | 16.3
c1ccc(-c2nnc(OCc3cccnc3)c3ccccc23)cc1 | -83.2
CC(C)CC1(C(=O)NCCN2CCOCC2)C=CCN1C(=O)c1ccccc1 (stereo not shown) | 25.1
CCN=C(Nc1ccc(Cl)cc1)c1cccnc1 | -2.16
COc1ccc(OCC(=O)Nc2ccccc2OC(F)F)cc1 | -22.2
O=[N+]([O-])c1ccc(SCc2c(F)cccc2Cl)nc1 | 6.11
Cc1cc(C)nc(/N=C2\NC(=O)CC(C(=O)O)N2c2ccc(Cl)cc2Cl)n1 (stereo not shown) | -0.63
CNc1oc(-c2ccc(OCc3ccccc3)cc2)nc1C#N | 18.3
CCN1CCCC1CNC(=O)CCNC(=O)c1cc(OC)c(OC)c(OC)c1 (stereo not shown) | -15.2
CC(=O)Nc1ccc(NC(=O)CSc2nnc(CC(C)O)n2-c2ccccc2)cc1 (stereo not shown) | 10.2
COc1cccc(OCc2cc(C(=O)N3CCN(C4CCCCC4)C(=O)C3)no2)c1 | -3.09
O=C(CN1CCCCCCC1)Nc1cc(Cl)cc(Cl)c1 | 1.75
COc1cccc(NS(=O)(=O)c2ccc3c(c2)N(C(C)=O)CCO3)c1 | 8.67
Cc1ccc(NC(=O)CS(=O)CC(=O)NC(C)CCc2ccco2)cc1Cl (stereo not shown) | -20.1
Cc1cc(C)c(C(N)=O)c(Nc2ccc(F)cc2)n1 | 15.6
CN(C1CCCCC1)S(=O)(=O)c1ccc(S(=O)(=O)N2CCCC2)cc1 | 5.01
C=CCn1c(=O)c(C=Nc2cccnc2Cl)c(O)n(CCCC)c1=O | -5.65
C=CCn1c(O)c(C(CC)=NCC2CCCO2)c(=O)[nH]c1=O (stereo not shown) | 3.61
CC(=O)NCC1CCCN(C(=O)c2ccc(OC3CCN(Cc4ccccn4)CC3)cc2)C1 (stereo not shown) | 25.8

SMILES | hERG current change (%, negative = inhibition) at 10uM [%]
c1ccc(Nc2nc3ccccc3[nH]2)nc1 | -2.35
NC(=O)CSc1nnc(-c2ccc(S(=O)(=O)N3CCOCC3)cc2)n1CC1CCCO1 (stereo not shown) | -6.19
c1ccc2nc(-c3ccc4c(c3)OCO4)ccc2c1 | 10.2
Cc1ccccc1S(=O)(=O)Nc1ncnc2ccccc12 | 5.21
CC(C)C(=O)Nc1cccc(-c2nc3ccccc3c(=O)o2)c1 | -3.14
Cc1cc(C)c(NC(=O)CN(C)C(C)C(=O)N2CCc3ccccc32)c(C)c1 (stereo not shown) | -50.3
Cc1ccc(S(=O)(=O)N2CCC(=O)N(C(CO)C(C)C)CC2)cc1 (stereo not shown) | -8.73
Cc1ccc(/C=C/C(=O)O)cc1S(=O)(=O)NCCO | 8.85
Cc1ccc(CN2C(=O)N/C(=C/c3cc(C)n(-c4ccccn4)c3C)C2=O)cc1 | 1.54
COc1ccc(CC(=O)NC2=NCCS2)cc1 | 3.1
OCCN1CCN(c2nc(-c3ccccc3)c3cc(Br)ccc3n2)CC1 | -47.7
CCCc1nc2ccc(NC(=O)c3cccs3)cc2c(=O)n1Cc1ccccc1Cl | 1.8
COc1ccc(C2=NO[C@@](CC(=O)O)(C(=O)Nc3ccc4c(c3)OCCO4)C2)cc1 | 13.1
CC(C)(C)C(=O)/C=C1\NC(=O)CS1 | 17.4
COC(=O)CCCCC1SCC(NC(=O)c2ccccc2)C1OC(C)=O (stereo not shown) | 26.5
CCc1cccc(CC)c1NC(=O)C(CC)Sc1nc2ccncc2[nH]1 (stereo not shown) | -10.9
CCOC(=O)CNC(=O)Cc1ccc(OC)cc1 | 19.6
NNC(=O)Cc1csc(-c2ccccc2)n1 | 5.22
NC(=O)CC(NC(=O)Cc1ccc(Cl)cc1)c1ccc(NCC2CC2)c([N+](=O)[O-])c1 (stereo not shown) | -41.7
Cc1csc(SCC(=O)Nc2ccccn2)n1 | -14.9

SMILES | hERG current change (%, negative = inhibition) at 10uM [%]
CC(=O)c1ccccc1OC(=O)c1c(F)cccc1F | 13.9
CC1=NN2C(=N)/C(=C\c3cc(C)n(Cc4ccccc4)c3C)C(=O)N=C2S1 | 13.6
Nc1nnc(CC(=O)N/N=C/c2ccc([N+](=O)[O-])cc2)s1 | 5.59
CC12CCC(C(=O)Nc3c(Cl)cccc3Cl)(C(Br)C1=O)C2(C)C (stereo not shown) | 7.19
COc1ccc(NC(=O)CN(C)S(=O)(=O)c2ccccc2)cc1OC | -1.21
Cc1cc(-c2ccccc2)c2c3c(c(-c4ccccc4)n2n1)c(=O)n(C)c(=O)n3C | -2.93
CCc1ccc2[nH]c(=O)c(-c3ccccc3)c(O)c2c1 | 17.5
COc1ccc(C(C)=O)cc1CSc1nc2cc(C(=O)O)ccc2c(=O)n1Cc1ccccc1 | 12.7
Cc1cc(C)nc(N2N=C(C(F)(F)F)CC2=O)n1 | 1.13
Cc1ccc(NC(=O)CNC(=O)c2cccc(Cl)c2)nc1 | 6.68
Cc1c(C(=O)O)oc2c3c(ccc12)OCCO3 | 8.12
CC(C)CCN(C(=O)c1csnn1)C(C(=O)NC1CCCC1)c1ccc(F)cc1 (stereo not shown) | -20.4
Cn1cc(/C=N/NC(=O)c2cccc([N+](=O)[O-])c2)c2ccccc21 | 14.8
CCC1=C/C(=C\c2ccc3c(c2)OCO3)C(=O)S1 | 11.1
Cn1c(SCCCC(=O)c2ccc(Br)cc2)nnc1-c1ccncc1 | -70.2
Cc1ccc(-n2c(C)cc(C(=O)CN3C(=O)C(=O)N(C4CCCC4)C3=O)c2C)cc1 | 8.15
COCCN(C(=O)CSc1nc(N)cc(=O)[nH]1)c1c(N)n(Cc2ccccc2)c(=O)[nH]c1=O | 1.93
Cc1ccc2c(c1)OC(=O)CC2c1ccccc1 (stereo not shown) | -6.26
